Results taken from the supplement of paper PMC3334620.
Over roughly 33,000 sequences, “E-score (-0.5 to 0.5)” has its median near -0.012; the highest 2% begin near 0.29. Some of the results follow.

target: T1, Ybr033w (UniProt P38073); assay: PBM E-score (8-mer binding enrichment) (E-score (-0.5 to 0.5)); higher = stronger / more preferred TF binding; most listed sequences are background and not binding sites; conditions: protein concentration: 200 nM; construct: GST-full length
T1 sequence: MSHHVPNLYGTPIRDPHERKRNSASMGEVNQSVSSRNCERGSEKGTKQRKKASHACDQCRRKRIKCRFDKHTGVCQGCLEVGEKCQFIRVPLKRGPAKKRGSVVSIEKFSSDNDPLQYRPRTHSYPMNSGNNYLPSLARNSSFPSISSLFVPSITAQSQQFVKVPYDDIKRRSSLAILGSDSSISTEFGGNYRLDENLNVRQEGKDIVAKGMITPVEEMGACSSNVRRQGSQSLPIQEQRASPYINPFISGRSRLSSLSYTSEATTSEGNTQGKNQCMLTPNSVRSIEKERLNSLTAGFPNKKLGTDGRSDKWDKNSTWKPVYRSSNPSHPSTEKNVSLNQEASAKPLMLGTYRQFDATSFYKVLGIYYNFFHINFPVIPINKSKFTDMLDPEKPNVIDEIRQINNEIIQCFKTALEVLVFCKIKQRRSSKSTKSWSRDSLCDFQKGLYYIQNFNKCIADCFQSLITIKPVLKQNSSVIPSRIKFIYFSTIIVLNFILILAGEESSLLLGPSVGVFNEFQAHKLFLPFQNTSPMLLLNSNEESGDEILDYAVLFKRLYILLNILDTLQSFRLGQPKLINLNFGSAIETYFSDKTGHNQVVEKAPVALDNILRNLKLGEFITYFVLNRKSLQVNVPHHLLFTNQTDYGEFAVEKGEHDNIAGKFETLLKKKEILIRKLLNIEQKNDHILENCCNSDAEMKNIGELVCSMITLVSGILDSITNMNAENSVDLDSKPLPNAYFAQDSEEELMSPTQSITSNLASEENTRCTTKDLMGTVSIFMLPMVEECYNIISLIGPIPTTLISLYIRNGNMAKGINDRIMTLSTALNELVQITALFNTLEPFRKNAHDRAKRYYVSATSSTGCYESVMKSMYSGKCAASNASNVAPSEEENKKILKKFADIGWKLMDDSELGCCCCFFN
How it was run: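 PURExpress in vitro transcription/translation supplied GST-tagged yeast transcription factors, either full-length or DNA-binding domain. Applied at about 100-200 nM to universal all-10-mer Agilent arrays double-stranded by primer extension, the bound protein was detected with fluorescent anti-GST. E-scores, modified Wilcoxon-Mann-Whitney statistics, were given by the Universal PBM Analysis Suite to ungapped eight-base words pooled with their reverse complements after masliner normalisation.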

| Sequence | PBM E-score |
| --- | --- |
| GAATGTAA | 0.229 |
| CGCGCTAA | 0.196 |
| CGAGCACA | 0.00514 |
| CCAGTCGG | -0.0905 |
| GATAGACA | 0.0674 |
| ATCCTGTG | -0.0447 |
| ATTAGTAC | 0.12 |
| AAGTATGG | 0.0503 |
| AATAATTA | 0.372 |
| ATGGGCGG | 0.0599 |
| CTAAGATC | 0.0586 |
| GCGTCCGA | -0.16 |
| GGTAGGTA | 0.0647 |
| CCCAATAG | -0.111 |
| AGCGTTTC | -0.113 |
| GCAGATCC | -0.138 |
| CCACATTC | 0.111 |
| AGGGGGCC | -0.39 |
| CATTAGCA | 0.169 |
| CTTTCCGC | -0.136 |
| AGGTGACT | -0.079 |
| TGACCTAA | 0.104 |
| ACCCGGTC | -0.293 |
| ACTTATTC | 0.199 |
| AAGCTTCG | 0.00914 |

| Sequence | PBM E-score |
| --- | --- |
| CGCATGAC | -0.112 |
| TCGTGCAA | 0.207 |
| AAGTTGAT | 0.197 |
| GAGGGTGC | -0.363 |
| CCGGCTTC | -0.165 |
| CATAATCA | 0.206 |
| ACTGATGC | -0.131 |
| AGTGTCTG | 0.0365 |
| CCTCTCTC | -0.164 |
| AATCAAGC | 0.0885 |
| AGACACCC | 0.00615 |
| CAACTTAC | -0.021 |
| CTGGCCCA | -0.332 |
| AGGTGTCG | -0.147 |
| CATCAGGA | 0.194 |
| AGCCGCTA | -0.0601 |
| GGGAGGTA | -0.0849 |
| TCAGAGCA | -0.114 |
| GCACGGCA | -0.0804 |
| AAATTCCA | 0.258 |
| ATATGATA | 0.347 |
| ACGCTGTG | -0.00213 |
| ACAACAAC | 0.191 |
| ACTCAAAT | 0.192 |
| GACTTAAC | -0.216 |

| Sequence | PBM E-score |
| --- | --- |
| AATTAATA | 0.429 |
| GAGTGCGC | 0.00368 |
| CGCTCCAG | -0.202 |
| ATCACGTG | -0.0187 |
| ATAATATA | 0.321 |
| AGGGTTGC | -0.11 |
| CAAGCGCC | -0.133 |
| CACAGGAC | -0.0218 |
| AGTAGTTC | 0.307 |
| ACCTAGAG | -0.151 |
| GTCGGGCA | -0.212 |
| AAATCGAT | 0.0646 |
| ACTTTAGG | -0.0326 |
| CTTTGCAA | 0.103 |
| GGCGCTAA | -0.127 |
| CCTCTCAG | -0.337 |
| GACTCCGC | -0.2 |
| AGACGTTG | 0.0485 |
| ACCCGTTG | -0.363 |
| ACCGGAAC | 0.167 |
| AAGAGAGG | -0.125 |
| GAAAAGTC | 0.00194 |
| AGAATGCT | 0.0947 |
| AAATGTTG | -0.0479 |
| TACATGGA | 0.0511 |

| Sequence | PBM E-score |
| --- | --- |
| CCAGCCAC | -0.00942 |
| CCCCGTAA | 0.0291 |
| GAGCCTAC | -0.126 |
| ATGAAACG | 0.13 |
| ATTATTGA | 0.151 |
| AGCAAAGC | -0.0264 |
| TAACATTA | 0.209 |
| TGCGAAAA | 0.219 |
| CCTCACGA | -0.174 |
| GTCCGGGA | 0.0146 |
| ATAATTCC | 0.348 |
| CCAATATC | 0.0188 |
| ATCTCACA | 0.102 |
| ACCTACCC | -0.152 |
| CGTGCGAC | -0.188 |
| TAGGACCA | -0.153 |
| CATCCAAA | -0.0492 |
| ATTATATG | 0.289 |
| AGTGGCAG | 0.0137 |
| CACTTCGG | 0.0966 |
| GGTTCTCA | 0.0316 |
| CCCCGTAG | -0.175 |
| CTCAATGA | 0.127 |
| GAGAAACC | 0.13 |
| CTATCCCA | -0.144 |

| Sequence | PBM E-score |
| --- | --- |
| ACCTATGG | -0.0204 |
| AGTAATTA | 0.232 |
| CCTCCTTA | -0.179 |
| AGACGAGG | -0.279 |
| TAAACGTA | 0.189 |
| AACTCTTC | 0.0765 |
| ATCGCGTA | -0.0199 |
| ATAACGCC | 0.0172 |
| ACTGTTCG | 0.148 |
| ACGTGTGA | -0.113 |
| AACCGGTG | -0.285 |
| CTCGTACA | 0.139 |
| TAGTTTGA | 0.139 |
| TATTCACA | 0.188 |
| CGGGAATC | -0.0584 |
| GCTGGGCC | -0.434 |
| CACTCGCG | -0.0339 |
| ATGTGGAA | 0.235 |
| GGAATAAC | 0.453 |
| CTGGTTAA | 0.138 |
| CCTCTTAG | 0.107 |
| CGGTCAAC | -0.00135 |
| GACAACCA | 0.0855 |
| CAACTGAG | 0.0852 |
| ACTTCAGA | -0.00082 |

| Sequence | PBM E-score |
| --- | --- |
| TAGCGCCA | -0.165 |
| TAGGGATA | 0.112 |
| GAAGCCGA | -0.0127 |
| AGACGCCG | -0.194 |
| GGCATCGA | -0.139 |
| CGGCCCAC | -0.206 |
| AATACACA | 0.191 |
| CCCTCCGC | -0.228 |
| AGAGTGTA | -0.0527 |
| AAAGGTCT | 0.0234 |
| ATAGAACA | 0.0739 |
| CCTGTTAA | -0.0364 |
| AGCGGCAG | -0.223 |
| CCAATCAG | -0.161 |
| CGTCACTA | -0.0312 |
| ATGTACTA | 0.213 |
| ACTAAGGC | -0.0699 |
| ACCTTTAG | -0.0576 |
| CCGTGTTA | 0.0956 |
| GTAGCGGA | 0.146 |
| ATTGGCAA | 0.107 |
| CTGGTCGC | -0.0833 |
| CGTCGGGA | -0.0352 |
| ATTTCCCG | 0.257 |
| ACGCGGAT | 0.141 |

| Sequence | PBM E-score |
| --- | --- |
| AAAGCGCT | 0.15 |
| ATCACGCA | 0.0227 |
| TAGAGGAA | 0.0471 |
| AACTGTGT | 0.137 |
| GCTTGACA | -0.0917 |
| AGCAAGCA | -0.116 |
| GACGCTGA | -0.0215 |
| ACGGCCAT | -0.197 |
| GCCCCCGC | -0.294 |
| GGTTACCA | 0.0295 |
| CGAGCAAC | -0.0054 |
| TCCATGAA | 0.162 |
| GTCGATTA | 0.14 |
| TCACGTAA | 0.00198 |
| CGGCCAAA | -0.0249 |
| CACCGCTA | -0.0953 |
| ATTGTTAA | 0.231 |
| CTGTTAAG | -0.107 |
| GCGCATTA | 0.142 |
| AGATCTTA | 0.159 |
| GTTACTCA | 0.0586 |
| CTTGCGCA | 0.049 |
